Experimental data taken from article PMC12040169 (PLOS Biology, 2025).
This is one part of the list.

Test system: T1, C. trachomatis L2/434/Bu expressing GFP (CTL2-GFP)
T1 construct: L2/434/Bu GFP intracellular growth in HeLa cells
Set-up: species or system HeLa; C. trachomatis total inclusion area by high-content imaging, normalised to DMSO
Conditions: total inclusion area; 28.5 h, 10 µM; inhibitor
In short: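 High-content images of fixed, Hoechst-stained infected cultures supply inclusion area and count (growth) plus nuclei number (viability), complementing bulk GFP/resorufin fluorescence. MIC determination is unchanged from the primary assay.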

Row | Structure (SMILES) | % of control remaining
1 | OCc1ccnc2ccccc12 [CBK001746] | 69.5328
2 | CC[C@H]1CN(C(=O)NC(C)C)CC[C@H]1CC(=O)NCc1ccc2c(c1)OCO2 [CBK288775] | 116.82
3 | O=C(c1cccc(F)c1)N1CCC(c2n[nH]c3ncccc23)CC1 [CBK284907] | 78.2855
4 | CC(=O)Nc1ccc(CNC(=O)CN(C)CC2CCCCO2)cc1 (stereo not shown) [CBK306567] | 57.3603
5 | O=C(c1ccco1)N1CCc2cc(-c3cn4c(n3)CCCC4)ccc21 [CBK282893] | 113.863
6 | Cc1cc(O)ccc1-c1cncc(-c2ccc(O)cc2C)n1 [CBK115689] | 102.063
7 | NC(=O)c1ccc(NC(=O)CSc2nnc(-c3ccncc3)n2-c2ccc(Br)cc2)cc1 [CBK266202] | 110.563
8 | CN(Cc1c(F)cccc1Cl)C(=O)CSc1nc(CC(=O)O)cs1 [CBK296708] | 99.8762
9 | Cc1c(C(c2ccc(C(=O)O)cc2)c2c(C)n(C)n(-c3ccccc3)c2=O)c(=O)n(-c2ccccc2)n1C [CBK261691] | 93.2866
10 | CC(C)c1ccc(NC(=O)CSc2nnc(CN3CCOCC3)n2C)cc1 [CBK268235] | 88.3824
11 | CCOC(=O)CC(=O)CSc1nc2nc(C)cc(C)n2n1 [CBK268469] | 112.434
12 | O=C(O)CCSc1nnc(-c2cccnc2)n1-c1ccccc1 [CBK268734] | 99.5513
13 | CC(Oc1ccccc1)c1nnc(SCC(=O)Nc2ccc(Br)c(Cl)c2)n1C (stereo not shown) [CBK266299] | 105.28
14 | COc1c(I)cc(Br)cc1/C=N/NC(=O)CC#N [CBK025764] | 87.0342
15 | CC(=O)OC1CCN(C(=O)c2cccc(C#N)c2)CC1 [CBK304648] | 109.99
16 | COc1ccnc(N2C[C@@H]3OCC(=O)N(Cc4ccccc4)[C@@H]3C2)n1 [CBK289666] | 89.1418
17 | CC(C)Nc1cc(SCCc2ccccn2)ncn1 [CBK105617] | 71.5995
18 | CCOC(=O)C1=C(CSc2nccn2C)NC(=O)NC1c1ccc2c(c1)OCO2 (stereo not shown) [CBK268746] | 85.2469
19 | CCN(CC)CC1CCCN(C(=O)CCn2ccc3ccncc32)C1 (stereo not shown) [CBK285174] | 99.7959
20 | Cc1cc(N2CCN(CC(=O)c3ccc(Cl)cc3)CC2)c2ccccc2n1 [CBK066868] | 110.285
21 | COc1cncc(-c2cnc3[nH]c(=O)n(C4CCCCC4)c3n2)c1 [CBK064230] | 58.8112
22 | Cc1ccc(NC(=O)CSc2nnc3c4c5c(sc4nc(-n4nc(C)cc4C)n23)COC(C)(C)C5)cc1 [CBK268675] | 114.585
23 | COc1ccc(C(=O)O)cc1S(=O)(=O)Nc1c(-c2cccs2)nc2cc(C)ccn12 [CBK297484] | 89.8516
24 | Cn1cc(CN(C(=O)c2nc(N)nc3c2CCCC3)C2CC2)cn1 [CBK307352] | 58.1563
25 | c1cc(CCNc2nccn3ccnc23)ccn1 [CBK037976] | 132.755
26 | CC[C@H](Cn1c(=O)oc2ccccc21)NC(=O)c1cccs1 [CBK284540] | 86.7243
27 | O=C(Cc1ccc2c(c1)CCCO2)NCc1ccccc1-n1ccnc1 [CBK281463] | 109.203

Row | Structure (SMILES) | % of control remaining
28 | CCC(C)NC(=O)Cn1c(C2CCNCC2)cc2cccnc21 (stereo not shown) [CBK285003] | 88.4
29 | CN(C(=O)C12CCOCC1CN(c1nccnc1C#N)C2)C1CCCC1 (stereo not shown) [CBK304244] | 115.654
30 | CC(C)CC(C(=O)Nc1ccc(C2CCCC2)cc1)N1CCN(C)CC1 (stereo not shown) [CBK024386C] | 68.1085
31 | O=C(Nc1cccc2c(NC(=O)N3CCCCC3)cccc12)N1CCCCC1 [CBK010775] | 13.0421
32 | Cc1nc2ccccn2c1-c1csc(Nc2cccc(C(=O)O)c2)n1 [CBK263303B] | 42.6972
33 | CC(NC(=O)CS(=O)(=O)Cc1ccc(C#N)cc1)c1ccc(C#N)cc1 (stereo not shown) [CBK297791] | 83.2089
34 | CCC(=O)Nc1ccc2oc(-c3cccc(C)c3)nc2c1 [CBK263065] | 112.794
35 | COCCCn1c(=O)[nH]c2ncc(-c3cccc(CO)c3)nc21 [CBK065104] | 108.894
36 | CN(CCN(C)/N=C/c1cccc2ccccc12)/N=C/c1cccc2ccccc12 [CBK262153] | 99.6288
37 | CC(N(C)S(=O)(=O)c1ccc(-n2ncc(Cl)c(Cl)c2=O)cc1)C(C)(C)C (stereo not shown) [CBK304544] | 40.7031
38 | CC(=O)NCC(=O)N1C[C@@H]2CCCCN(Cc3cccc(F)c3)[C@@H]2C1 [CBK285515] | 96.3456
39 | COc1ccc(-c2nn(-c3ccccc3)cc2C(=O)Nc2ccc(C(=O)O)cc2)cc1OC [CBK296112] | 137.097
40 | COc1nccnc1-c1ccc(SC)cc1 [CBK106795] | 82.0727
41 | Cc1ccccc1NC(=O)NC(=O)C1CCN(S(C)(=O)=O)CC1 [CBK034862] | 80.4272
42 | c1ccc2nc(N3CCCC3)c(SCCc3cnccn3)nc2c1 [CBK103695] | 95.9339
43 | Fc1ccccc1CN(CCCn1ccnc1)Cc1ccoc1 [CBK283024] | 103.753
44 | COc1ccc(Cl)cc1NC(=O)CC1NC2CCCCC2NC1=O (stereo not shown) [CBK267318] | 88.9268
45 | O=S(=O)(NCCCN1CCN(Cc2ccccc2)CC1)c1cccc(Cl)c1Cl [CBK074655] | 78.5201
46 | Cn1ncc2c(NCC(=O)N3CCNCC3)nc(C(C)(C)C)nc21 [CBK307702] | 66.3151
47 | NCC(=O)N(CCC1CCCC1)c1cccc2ccccc12 [CBK011922C] | 107.032
48 | CC1CCc2c(sc3ncnc(OCC(=O)N4CCCCC4)c23)C1 (stereo not shown) [CBK304979] | 63.9394
49 | Cc1cccc(N(CC(O)CN2C(=O)NC(C)(C)C2=O)S(=O)(=O)c2ccccc2)c1 (stereo not shown) [CBK263582] | 99.3453
50 | Cc1csc(C(Cc2cccs2)NC(=O)C2CCOCC2)n1 (stereo not shown) [CBK285006] | 99.594
51 | c1ccc(CNc2nnc(-c3ccccc3)s2)cc1 [CBK074928] | 43.8631
52 | COc1ccc2c(c1)CCCN2C(=O)CCn1ccc(C)n1 [CBK282217] | 71.399
53 | Cc1nc2c(c(=O)[nH]1)CC[C@@H]1CN(C(=O)c3cccs3)C[C@H]21 [CBK284406] | 73.6865
54 | CC(C)N(Cc1nc(-c2ccc(Cl)cc2)no1)C(=O)COc1ccc(Br)cc1Cl [CBK267126] | 89.9288

Row | Structure (SMILES) | % of control remaining
55 | O=C(NCc1ccccn1)c1ncoc1-c1ccc(F)cc1 [CBK282352] | 59.5068
56 | Cn1c(SCC(=O)Nc2ccc(F)cc2)nnc1-c1cccnc1 [CBK267035] | 136.848
57 | O=C(COc1ccccc1)Nc1cccc(N2CCNCC2)c1 [CBK028271T] | 83.1138
58 | CCOc1cc(/C=c2/sc3nc(=O)c(Cc4ccccc4)nn3c2=O)ccc1OC(C)=O [CBK077455] | 108.096
59 | Cc1cc(C)n(CC(C)C(=O)Nc2cccnc2)n1 (stereo not shown) [CBK307573] | 58.0649
60 | CCN(CC(=O)Nc1ccc2c(c1)OCCO2)S(=O)(=O)c1ccsc1C(=O)O [CBK296717] | 105.921
61 | Cc1ccc(-c2nn(CCC#N)cc2C(=O)N2CCCCC2)cc1C [CBK306131] | 42.5102
62 | COC(=O)c1cc(CN2CCCN(S(=O)(=O)c3ccc(C(F)(F)F)cc3Cl)CC2)cn1C [CBK063097] | 87.8104
63 | O=S(=O)(NCc1ccccc1)c1ccc(Cl)cc1 [CBK086159] | 92.9393
64 | CCOc1cccc(-c2cn3ccnc3c(N3CCN(CCO)CC3)n2)c1 [CBK066612] | 129.137
65 | O=C(NCCc1c[nH]c2ccccc12)c1ccc(-c2ccco2)nc1N1CCN(C(=O)c2ccco2)CC1 [CBK076217] | 101.391
66 | CC(=O)N1CCC[C@H]2NC(=O)CNC(=O)C3(C/C=C/C[C@H]21)CCN(c1ncccn1)CC3 [CBK292042] | 83.1552
67 | CN(Cc1c(C2CCNCC2)[nH]c2ncccc12)C1CCCCC1 [CBK285079] | 89.2636
68 | CCNC(=O)N1Cc2nc[nH]c2C[C@H]1C(=O)NCc1ccc(C#N)cc1 [CBK288975] | 109.568
69 | CC(=O)[C@H]1CC[C@H]2[C@@H]3CC[C@H]4CC5(CC[C@]4(C)[C@H]3CC[C@]12C)N=C1C=C(C(C)(C)C)ON1C1C=CCC15 (stereo partly shown) [CBK303246] | 0.2873
70 | CCC(c1nc2ccccc2c(=O)n1CCCn1ccnc1)N1C(=O)c2ccccc2C1=O (stereo not shown) [CBK268560] | 86.4488
71 | Cc1ccc(Cl)cc1N1CCN(CC(O)COCc2ccc3c(c2)OCO3)CC1 (stereo not shown) [CBK278308C] | 85.829
72 | CN(C)c1nc2c(c(=O)[nH]c(=O)n2C)n1Cc1cccc2ccccc12 [CBK140560] | 120.85
73 | O=C(CSc1ccc2nnc(-c3cccc(F)c3)n2n1)Nc1nccs1 [CBK287522] | 104.164
74 | Fc1ccc(-c2n[nH]c(=S)n2CCCN2CCOCC2)cc1 [CBK267127] | 113.135
75 | COc1ccc(Cl)cc1-n1c(-c2ccc3ccccc3n2)n[nH]c1=S [CBK288382] | 99.4017
76 | COc1c(C)cnc(COC(=O)N2C[C@@H](C)O[C@@H](C)C2)c1C [CBK200143] | 73.5407
77 | O=C(COc1cccnc1)N1CCCC2(CCN(C(=O)Cc3c[nH]c4ccccc34)C2)C1 (stereo not shown) [CBK131608] | 68.4479
78 | CCOc1ccc(-c2ccnc(NCC3CCCOC3)n2)cc1C(=O)O (stereo not shown) [CBK307694] | 94.4389
79 | CC/C(=C\c1sc2ccc3ccccc3c2[n+]1CCCS(=O)[O-])SC [CBK264941] | 102.92
